{
  "source": "PubChem BioAssay AID1631",
  "about": "(National Center for Advancing Translational Sciences (NCATS), 2009)",
  "note": "The campaign covered roughly 260,000 compounds. About 890 (0.34%) were called active. Inconclusive means that the source gave no clear call. Such entries were picked first, then a sample of the others. Calls follow the shape of the dose curve; as a rule, active = well fitted activation curve with a large enough effect; inconclusive = small, poorly fitted or top-dose-only effect; inactive = no such curve, though single readings can be large or run the other way. No potency is given beside an inconclusive call; the fits are too rough. Potency is read from the fitted curve at half-maximal effect; tags tell the direction and shape of the fitted curve.",
  "data": [
    {"target": "Pyruvate kinase PKM (Homo sapiens) (UniProt P14618)", "sequence (P14618 whole entry, looked up, canonical isoform)": "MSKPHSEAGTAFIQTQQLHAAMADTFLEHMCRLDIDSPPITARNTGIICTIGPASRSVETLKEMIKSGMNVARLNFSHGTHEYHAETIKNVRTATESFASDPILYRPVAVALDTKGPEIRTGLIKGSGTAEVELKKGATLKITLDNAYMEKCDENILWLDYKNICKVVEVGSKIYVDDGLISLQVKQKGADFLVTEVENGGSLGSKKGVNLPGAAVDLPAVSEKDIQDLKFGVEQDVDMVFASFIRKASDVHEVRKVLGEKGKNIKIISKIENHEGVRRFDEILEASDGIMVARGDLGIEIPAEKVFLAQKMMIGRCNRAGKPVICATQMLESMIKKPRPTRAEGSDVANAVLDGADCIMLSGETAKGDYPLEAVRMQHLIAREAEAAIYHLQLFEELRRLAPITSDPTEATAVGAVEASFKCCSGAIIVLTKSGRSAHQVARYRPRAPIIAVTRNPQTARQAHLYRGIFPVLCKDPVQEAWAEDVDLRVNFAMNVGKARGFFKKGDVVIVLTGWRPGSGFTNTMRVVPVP", "assay": "qHTS Assay for Activators of Human Muscle isoform 2 Pyruvate Kinase; also: nearly all actives have a fitted effect of over 55% in size", "settings": "purified PKM2, Kinase-Glo ATP luminescence; Potency: activation; series mostly up to 57.5 µM", "in_short": "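hPK-M2, >95% pure; 0.1 mM ADP / 0.5 mM PEP final; imidazole pH7.2 buffer w/ 7 mM MgCl2, 50 mM KCl; 1 h RT; Kinase-Glo lum. Intermediate enzyme activity for dual inhibitor/activator qHTS.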", "values": [
      {"smiles": "C[C@]12CC[C@@H]3c4cc(O)c(O)cc4CC[C@H]3[C@@H]1CC[C@@H]2O", "Potency": "inconclusive [rising, full curve]"},
      {"smiles": "CCc1nnc(NC(=O)CSc2ccc(-c3ccco3)nn2)s1", "Potency": "active: 15.8 µM"},
      {"smiles": "O=c1[nH]c(=S)[nH]c(O)c1N=Nc1ccc(S(=O)(=O)N2CCOCC2)cc1", "Potency": "inconclusive [rising, single point]"},
      {"smiles": "CC(=O)Nc1ccc(N(C(=O)Cn2nnc3ccccc32)C(C(=O)NC2CCCC2)c2ccc(O)c(O)c2)cc1", "note": "(stereo not drawn)", "Potency": "inconclusive [rising, partial curve]"},
      {"smiles": "O=C1NC(=S)N(c2ccccc2F)C(=O)/C1=C\\c1cccs1", "Potency": "inconclusive [rising, partial curve]"},
      {"smiles": "CCc1nnc(NC(=O)CCc2nc(C3=CCN(C)CC3)no2)s1", "Potency": "inconclusive [rising, single point]"},
      {"smiles": "Cc1c(S(=O)(=O)Nc2cccc(Cl)c2)c(=O)n(C)c(=O)n1C", "Potency": "inconclusive [rising, partial curve]"},
      {"smiles": "Cc1cccc(N2C(=O)NC(=O)/C(=C/c3ccc(-c4ccc(C(=O)O)c(Cl)c4)o3)C2=O)c1", "Potency": "inconclusive [rising, partial curve]"},
      {"smiles": "O=C1NC(=O)N(Cc2ccccc2)C(=O)/C1=C\\C=C\\c1ccco1", "Potency": "inconclusive [rising, partial curve, poor fit]"},
      {"smiles": "COc1cc(OC)c(OC)cc1CN1CCN(C(=O)Cc2ccccc2)CC1", "Potency": "inconclusive [rising, single point]"},
      {"smiles": "CCOC(=O)c1c(C)n(Cc2ccccc2)c2ccc(O)cc12", "Potency": "inconclusive [rising, single point]"},
      {"smiles": "O=C1NC(=O)C(=Cc2coc3ccc(O)cc3c2=O)C(=O)N1", "Potency": "active: 31.6 µM"},
      {"smiles": "CCCCn1c(O)c(C(C)=NC(Cc2c[nH]c3ccccc23)C(=O)OC)c(=O)[nH]c1=O", "note": "(stereo not drawn)", "Potency": "inconclusive [rising, partial curve]"},
      {"smiles": "CC1(C)CC(=O)C(C2(O)C(=O)NC(=O)NC2=O)=C(O)C1", "Potency": "inactive"},
      {"smiles": "COc1ccccc1NC(=O)N1C[C@@H]2C[C@@H](C1)c1cccc(=O)n1C2", "Potency": "inconclusive [rising, single point]"},
      {"smiles": "COc1ccc(-n2c(=O)[nH]c3ccccc3c2=O)c(OC)c1", "Potency": "inconclusive [rising, single point]"},
      {"smiles": "O=c1[nH]c(=O)n(Cc2ccco2)c(O)c1C=NCc1ccco1", "Potency": "inconclusive [rising, single point]"},
      {"smiles": "Cn1c(=O)oc2cc(S(=O)(=O)N3CCc4ccccc43)ccc21", "Potency": "inconclusive [rising, partial curve, poor fit]"},
      {"smiles": "S=C1CN=C(c2ccccc2)c2cc(Cl)ccc2N1", "Potency": "inconclusive [rising, full curve, poor fit]"},
      {"smiles": "CC(=NCCc1ccccc1)c1c(O)[nH]c(=O)[nH]c1=O", "Potency": "active: 28.2 µM"},
      {"smiles": "CN1C(=O)C(=Cc2ccc(OCCN(C)c3ccccn3)cc2)C(=O)N(C)C1=O", "Potency": "inconclusive [rising, single point]"},
      {"smiles": "O=C(OCC#CCSc1nnc(-c2ccccc2)o1)c1ccco1", "Potency": "inconclusive [rising, single point]"},
      {"smiles": "O=C(COc1ccccc1)N1CCN(C2CC3CCC2C3)CC1", "note": "(stereo not drawn)", "Potency": "inconclusive [rising, single point]"},
      {"smiles": "Cc1cc2c(C(C)C)c(O)c(O)c(C=O)c2c(O)c1-c1c(C)cc2c(C(C)C)c(O)c(O)c(C=O)c2c1O", "Potency": "inconclusive [rising, single point]"},
      {"smiles": "CC(=O)Nc1cc([As](=O)(O)O)ccc1O", "Potency": "inactive"},
      {"smiles": "O=C1NC(=O)N(Cc2ccc(F)cc2)C(=O)/C1=C\\C=C\\c1ccco1", "Potency": "inconclusive [rising, full curve]"},
      {"smiles": "O=C1CCN(C(=O)CNC(=O)Cc2ccccc2)CC1", "Potency": "inconclusive [rising, single point]"},
      {"smiles": "O=C(CN1C(=O)S/C(=C\\C=C\\c2ccccc2)C1=O)Nc1ccccc1C(=O)O", "Potency": "inconclusive [rising, single point]"},
      {"smiles": "CCCCOc1ccc(CC2C(=O)N(C)C(=O)N(C)C2=O)cc1", "Potency": "inactive"},
      {"smiles": "O=C1NC(=O)N(Cc2ccccc2Cl)C(=O)/C1=C/c1cccs1", "Potency": "inconclusive [rising, partial curve]"},
      {"smiles": "O=C1NC(=O)C(=Cc2ccc(SC3CCCCC3)o2)C(=O)N1", "Potency": "inconclusive [rising, partial curve]"},
      {"smiles": "COc1cc2c(cc1O)C(Cc1ccc(O)cc1)NCC2", "note": "(stereo not drawn)", "Potency": "inconclusive [rising, single point]"},
      {"smiles": "CCN(CC)C(=O)c1ccc2c(c1)C1C(Cl)C(Sc3ccccc3[N+](=O)[O-])CC1C(C(=O)O)N2", "note": "(stereo not drawn)", "Potency": "inactive"},
      {"smiles": "CCC(C)C1(CC)C(=O)NC(=O)N=C1N", "note": "(stereo not drawn)", "Potency": "inconclusive [rising, single point]"},
      {"smiles": "O=C1NC(c2cc3ccccc3nc2Cl)Nc2ccccc21", "note": "(stereo not drawn)", "Potency": "inconclusive [rising, partial curve]"},
      {"smiles": "C/C=C(\\C)C(=O)N[C@@H](c1ccccc1)[C@@H](O)C(=O)O[C@H]1C[C@@]2(O)[C@@H](OC(=O)c3ccccc3)C3[C@](C)(C(=O)[C@H](O)C(=C1C)C2(C)C)[C@@H](O)C[C@H]1OC[C@@]31OC(C)=O", "note": "(stereo partly drawn)", "Potency": "inactive"},
      {"smiles": "COC(=O)c1c(C)n(Cc2ccccc2)c2ccc(O)cc12", "Potency": "inconclusive [rising, partial curve]"},
      {"smiles": "CCOC(=O)c1c(-n2c(C)cc(C=C3C(=O)NC(=O)NC3=O)c2C)sc2c1CCCC2", "Potency": "inconclusive [rising, partial curve]"},
      {"smiles": "Cc1ccc(-n2nc(C)c3c2NC(=O)CSC3c2ccc3c(c2)OCO3)cc1", "note": "(stereo not drawn)", "Potency": "inconclusive [rising, single point]"},
      {"smiles": "C=CCN1C(=O)/C(=C/c2cccs2)C(=O)NC1=S", "Potency": "inconclusive [rising, single point]"},
      {"smiles": "O=C1NC(=O)N(c2ccc(Br)cc2)C(=O)/C1=C/c1ccsc1", "Potency": "inactive"},
      {"smiles": "CCOc1ccc(N2C(=O)/C(=C\\c3cccs3)C(=O)NC2=S)cc1", "Potency": "inconclusive [rising, partial curve]"},
      {"smiles": "CON(C)C(=O)Nc1ccc(Cl)cc1", "Potency": "inconclusive [rising, partial curve]"},
      {"smiles": "COc1cc2c(cc1C=O)OCO2", "Potency": "inactive"},
      {"smiles": "CCOP(=O)(OCC)C(NC(=O)c1cccc(C)c1)C(Cl)(Cl)Cl", "note": "(stereo not drawn)", "Potency": "inactive"},
      {"smiles": "CC(=NCc1ccco1)c1c(O)n(Cc2ccccc2)c(=O)[nH]c1=O", "Potency": "inconclusive [rising, single point]"},
      {"smiles": "CN1C(=O)C(=Cc2ccc(SC3CCCCC3)o2)C(=O)N(C)C1=O", "Potency": "inconclusive [rising, single point]"},
      {"smiles": "CC(=O)Nc1ccc(N=Cc2c(O)n(Cc3ccco3)c(=O)[nH]c2=O)cc1", "Potency": "inconclusive [rising, single point]"},
      {"smiles": "CCCCn1c(=O)c(C(=O)Nc2cnccn2)c(O)c2ccccc21", "Potency": "inconclusive [rising, full curve, poor fit]"},
      {"smiles": "C[C@]12CC[C@@H]3c4ccc(O)c(O)c4CC[C@H]3[C@@H]1CC[C@@H]2O", "Potency": "inconclusive [rising, full curve]"},
      {"smiles": "O=C1C=Cc2ccccc2C1=O", "Potency": "inconclusive [rising, partial curve]"},
      {"smiles": "CC12CC(c3ccccc3O1)C(C(=O)OCc1ccccc1)C(=O)N2", "note": "(stereo not drawn)", "Potency": "inconclusive [rising, partial curve, poor fit]"},
      {"smiles": "O=C(CN1CCCC1=O)Nc1ccccc1", "Potency": "inactive"},
      {"smiles": "Cc1ccsc1/C=C1\\C(=O)NC(=S)N(C)C1=O", "Potency": "inactive"},
      {"smiles": "N#CC(C#N)=NNc1ccc(S(=O)(=O)N2CCCC2)cc1", "Potency": "inconclusive [rising, partial curve]"},
      {"smiles": "O=C1NC(=O)N(c2ccc3c(c2)OCO3)C(=O)/C1=C\\c1ccc(-c2ccccc2C(=O)O)o1", "Potency": "active: 25.1 µM"},
      {"smiles": "COc1ccc(N2C(=O)/C(=C/C=C/c3ccccc3[N+](=O)[O-])C(=O)NC2=S)cc1", "Potency": "active: 20 µM"},
      {"smiles": "O=c1c2ccccc2[se]n1-c1ccccc1", "Potency": "inactive"},
      {"smiles": "CCCc1cc2c(n1Cc1ccco1)C(C)C1CN(C(=O)c3ccccc3)C(C)(C(=O)OC)C21", "note": "(stereo not drawn)", "Potency": "inconclusive [rising, single point]"},
      {"smiles": "Cc1cccc(N2C(=O)NC(=O)/C(=C\\C=C\\c3ccco3)C2=O)c1", "Potency": "inconclusive [rising, partial curve]"},
      {"smiles": "COc1ccc(NC(c2ccccc2F)P(=O)(Oc2ccccc2)Oc2ccccc2)cc1", "note": "(stereo not drawn)", "Potency": "inconclusive [rising, single point]"},
      {"smiles": "NP(=O)(OCCCc1ccccc1)Oc1ccccc1Cl", "note": "(stereo not drawn)", "Potency": "inconclusive [rising, single point]"},
      {"smiles": "COCCCOc1ccnc(CS(=O)c2nc3ccccc3[nH]2)c1C", "note": "(stereo not drawn)", "Potency": "inconclusive [rising, single point]"},
      {"smiles": "O=C1NC(=O)N(c2ccc3c(c2)OCO3)C(=O)/C1=C\\c1ccsc1", "Potency": "inconclusive [rising, partial curve]"},
      {"smiles": "O=C1CN=C(c2ccccc2)c2c(sc3c2CCCC3)N1", "Potency": "inactive"},
      {"smiles": "Nn1c(CSc2nc3ccccc3o2)nnc1CSc1nc2ccccc2o1", "Potency": "inconclusive [rising, single point]"},
      {"smiles": "C=CCN1C(=O)/C(=C/c2ccc(Br)s2)C(=O)NC1=S", "Potency": "inconclusive [rising, single point]"},
      {"smiles": "CC1N(O)C2CCCCCC2N1O", "note": "(stereo not drawn)", "Potency": "inconclusive [rising, single point]"}
    ]}
  ]
}
